Data: paper PMC4336329 (PLoS ONE, 2015)
Out of some 310,000 compounds screened, about 2,200 (0.71%) showed an effect of 50% or more. Effects have a minus sign here. The list shows a part of the results.

Molecular target: human ether-à-go-go-related gene (hERG) potassium channel (human, UniProt Q12809)
Experiment: primary screen, population patch clamp on CHO cells stably expressing hERG

human ether-à-go-go-related gene (hERG) potassium channel, sequence (Q12809 whole entry, looked up): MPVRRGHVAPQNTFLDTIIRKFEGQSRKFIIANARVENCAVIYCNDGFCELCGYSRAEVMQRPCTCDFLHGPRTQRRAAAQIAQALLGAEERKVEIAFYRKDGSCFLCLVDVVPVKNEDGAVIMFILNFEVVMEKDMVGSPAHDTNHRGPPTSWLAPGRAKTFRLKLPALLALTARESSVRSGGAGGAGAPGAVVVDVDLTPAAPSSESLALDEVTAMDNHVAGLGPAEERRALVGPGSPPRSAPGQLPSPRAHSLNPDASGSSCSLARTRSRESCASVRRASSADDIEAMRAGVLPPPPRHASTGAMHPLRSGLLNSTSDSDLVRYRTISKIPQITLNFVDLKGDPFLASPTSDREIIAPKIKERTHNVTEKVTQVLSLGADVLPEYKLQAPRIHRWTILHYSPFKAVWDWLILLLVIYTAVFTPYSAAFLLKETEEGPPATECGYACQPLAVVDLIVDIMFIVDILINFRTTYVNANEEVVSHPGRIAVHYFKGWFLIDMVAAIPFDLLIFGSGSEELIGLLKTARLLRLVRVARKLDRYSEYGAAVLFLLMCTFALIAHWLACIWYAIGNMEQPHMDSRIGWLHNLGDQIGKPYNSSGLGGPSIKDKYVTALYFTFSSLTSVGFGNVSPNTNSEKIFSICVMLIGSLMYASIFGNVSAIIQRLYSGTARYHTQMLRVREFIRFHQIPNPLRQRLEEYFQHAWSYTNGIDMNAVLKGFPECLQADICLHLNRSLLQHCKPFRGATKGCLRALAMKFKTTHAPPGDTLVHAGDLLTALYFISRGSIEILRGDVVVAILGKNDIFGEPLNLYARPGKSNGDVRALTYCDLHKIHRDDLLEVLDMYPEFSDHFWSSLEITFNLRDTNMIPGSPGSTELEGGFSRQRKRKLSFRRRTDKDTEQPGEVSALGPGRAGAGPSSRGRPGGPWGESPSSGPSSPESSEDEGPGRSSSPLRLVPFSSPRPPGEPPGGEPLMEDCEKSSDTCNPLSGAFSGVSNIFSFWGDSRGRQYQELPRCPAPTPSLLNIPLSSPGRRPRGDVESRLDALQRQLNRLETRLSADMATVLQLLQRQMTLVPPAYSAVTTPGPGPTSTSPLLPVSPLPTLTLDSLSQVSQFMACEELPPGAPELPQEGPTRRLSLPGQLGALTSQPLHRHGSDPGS

Compound | hERG current change (%, negative = inhibition) at 1uM [%]
CCOc1cccc(C(=O)Nc2cc(-c3nn4c(C)nnc4s3)ccc2C)c1 | -7.45
N#Cc1ccsc1NC(=O)CN1CCCCC1 | 7.65
COc1cc(O)c2c(c1)OC(c1ccc(O)cc1)CC2=O (stereo not drawn) | -4.82
CCOc1ccc(OCCOCCN2CCCC2)cc1.O=C(O)C(=O)O | 9.53
O=C(CN1C(=O)S/C(=C/c2ccncc2)C1=O)N1CCOCC1 | -6.01
C=Cc1ccc(Cn2nc(-c3ccccc3)ccc2=O)cc1 | 11
CC(C)CC(=O)Nc1cc2c3c(c1)C(C)C(=O)N3CCC2 (stereo not drawn) | 24.5
CCOc1cc(CNc2cccc3ccccc23)cc(Br)c1OCC(=O)NC(C)(C)C | 3.55
COC(=O)c1sccc1NC(=O)c1ccc(OC)cc1 | 13.2
O=C(CSC1CC(=O)N(CC(c2ccccc2)c2ccccc2)C1=O)Nc1ccc(Cl)cc1 (stereo not drawn) | 7.24
COc1ccc(CCC(=O)NNC(=O)c2ccc(F)cc2)cc1 | 11
COc1ccc(NC(=O)CC2C(=O)N(c3cccc(OC)c3)C(=O)N2C2CCCCC2)cc1 (stereo not drawn) | 14.6
O=C(NC(=S)Nc1cccc(O)c1)c1cncc(Br)c1 | 10.9
O=C(COc1ccc2ccccc2c1)NNC(=O)Cc1cccc2ccccc12 | 0.715
O=C(NCCc1ccc(Cl)cc1)c1ccc2c(c1)OCO2 | -0.947
CCOc1ccc(NC(=O)CSc2nnc(Cn3cnc([N+](=O)[O-])n3)n2CC)cc1 | 8.08
CN(C)S(=O)(=O)c1cccc(NC(=O)Cc2ccc(Cl)cc2)c1 | 0.235
O=C(CNc1cccc([N+](=O)[O-])c1)N/N=C/c1ccc([N+](=O)[O-])o1 | 2.54
COc1ccc(OCCCC(=O)ON=C(N)c2ccccc2Cl)cc1 | 8.19
CN(C)CCCn1cnc2c1c(=O)[nH]c(=O)n2Cc1ccccc1.Cl | 11.5
O=C(O)CC1(CC(=O)Nc2ccc(F)c(Cl)c2)CCCCC1 | 9.41
CC(OC(=O)c1ccc(NC(=O)CC#N)cc1)C(=O)NCCC1=CCCCC1 (stereo not drawn) | 13
COc1ccc(S(=O)(=O)Nc2ccccc2C(=O)NCc2cccnc2)cc1 | 12.1
CCc1ccc(N(C(=O)CNC(=O)c2ccco2)C(C(=O)NC2CCCC2)c2cccnc2)cc1 (stereo not drawn) | 14.4
